From PubChem BioAssay AID1345082 (National Center for Advancing Translational Sciences (NCATS), 2018)
About 4,000 (4.3%) of roughly 94,000 compounds were called active. Inconclusive results, whose numbers are uncertain, are shown with a selection of clear calls. Calls follow the shape of the dose curve; as a rule, active = well fitted inhibition curve with a large enough effect; inconclusive = small, poorly fitted or top-dose-only effect; inactive = no such curve, though single readings can be large or run the other way. Potencies beside an inconclusive call are fits to weak or partial responses and may not hold up.

assay: Cytotoxic Profiling in NIH 3T3 Cell Line of Diverse Libraries Using Quantitative High-Throughput Screening; conditions: NIH 3T3 viability, CellTiter-Glo ATP luminescence, 48-72 h; activity change, negative = cytotoxicity: at 96.7 µM (top of the series) unless noted; series mostly up to 96.7 µM; also: nearly all actives have a fitted effect of over 55% in size
Method in brief: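 Mouse fibroblast NIH 3T3 cells, 400 per well, received compound via pintool and were incubated for 48 or 72 hr prior to CellTiter-Glo ATP luminescence measurement.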
% is scaled to controls: 0 for no effect and ±100 for the full control effect; potency is read from the fitted curve at half-maximal effect; tags tell the direction and shape of the fitted curve.

SMILES	Potency	outcome	activity change, negative = cytotoxicity
Cc1cc(-c2cc3c(nc2-c2ccccc2)nc(C(=O)NCCN(C)C)n3C)ccn1	inconclusive: 100 µM [inhibitor, single point]	–	–
O=C(NCC(F)F)C1CCN(c2nc3ncccc3o2)CC1	–	inactive [at 138 µM]	–
CN(C)C(=O)c1csc(N2CCN(c3cccc(Cl)c3)CC2)n1	inconclusive: 31.6 µM [inhibitor, partial curve, poor fit]	–	–
Cc1noc(C)c1CN1CCc2nc(C(=O)NCc3ccccc3)oc2CC1	–	–	inactive: -34.4% [at 138 µM]
O=C(c1cc(F)ccc1Cl)N1CCC2(CC1)CC(O)CCO2 (stereo not drawn)	–	–	inactive: -5.2%
Cc1ccc(NC(=O)C2CCCN(c3ccnc4ccnn34)C2)cc1 (stereo not drawn)	inconclusive: 11.2 µM [inhibitor, full curve, poor fit]	–	–
COc1ccc(OC)c(CNC(=O)C2Cn3cccc3C(=O)N2Cc2cccnc2)c1 (stereo not drawn)	–	–	inactive: 1.23%
CCC1(O)CCC12CCN(C(=O)CCC1CCCC1)CC2 (stereo not drawn)	–	–	inactive: -22.7%
O=C(C1CCOC1)N1CCC(N(Cc2ccccc2)C2CCOCC2)CC1 (stereo not drawn)	–	–	inactive: -1.09%
O=C(C1CCN(c2nccc(Nc3ccccc3F)n2)CC1)N1CCOCC1	–	–	inactive: -29.1%
COCCN1CCCCCC(O)c2cc(C(=O)N(CCN(C)C)Cc3ccccc3)ccc21 (stereo not drawn)	inconclusive: 44.7 µM [inhibitor, partial curve, poor fit]	–	–
O=Cc1cccc(N2CCN(C(=O)N3CCOCC3)CC2=O)c1	inconclusive: 89.1 µM [inhibitor, single point]	–	–
COc1ccccc1Nc1ccnc(N2CCC(N[S+](=O)([O-])c3c(C)noc3C)CC2)n1	inconclusive: 44.7 µM [inhibitor, partial curve, poor fit]	–	–
O=C(c1ccccc1)N1CCC2(C1)C(=O)N(c1ccccc1)c1ccccc12 (stereo not drawn)	inconclusive: 35.5 µM [inhibitor, partial curve, poor fit]	–	–
Cc1nc(CN(C)C(=O)c2cc(Cn3c(C)nc4ccccc43)on2)cs1	inconclusive: 17.8 µM [inhibitor, full curve, poor fit]	–	–
COc1ccc(CN2Cc3[nH]cnc3C[C@H]2c2nc(-c3ccc(C)cc3)no2)cc1	active: 79.4 µM	–	–
Cn1nccc1-c1ncc2c(n1)OCCN(Cc1ccccc1)C2=O	–	–	inactive: -25.2% [at 138 µM]
CCCN1C[C@@H](CO)[C@H](c2nc(CCOC)no2)C1	–	–	inactive: -7.9%
COc1ccc(CCc2nc(C3CC(=O)N(Cc4ccccc4OC)C3)no2)cc1 (stereo not drawn)	inconclusive: 44.7 µM [inhibitor, partial curve, poor fit]	–	–
CCn1nccc1C(=O)N1CCC2(CC1)c1[nH]c3ccc(OC)cc3c1CCN2C	–	–	inactive: -19.8%
COC(=O)[C@@H]1Cc2c([nH]c3ccccc23)[C@H]2C[C@@H](NC[C@H]3CCCO3)C[C@@H](c3ccccc3F)N21	active: 79.4 µM	–	–
COc1ccccc1-c1n[nH]c2c1CC(=O)N(c1ccccc1)C2	inconclusive: 89.1 µM [inhibitor, partial curve, poor fit]	–	–
CN(C)C(=O)c1ccnc(-c2nnc3ccc(N(C)Cc4ccccc4)nn23)c1	inconclusive: 89.1 µM [inhibitor, partial curve, poor fit]	–	–

SMILES	Potency	outcome	activity change, negative = cytotoxicity
O=C(NCc1ccccc1)c1c(-c2ccccc2)cc(=O)n2c1CCCC2	inconclusive: 50.1 µM [inhibitor, partial curve, poor fit]	–	–
CNC(=O)N1CCC(C2CCN(C(=O)CCCC(=O)O)C2)CC1 (stereo not drawn)	–	–	inactive: -3.37%
O=C(Nc1ccccc1)N1C[C@@H](CO)[C@@H]2Oc3c(F)cccc3[C@@H]21	inconclusive: 79.4 µM [inhibitor, partial curve, poor fit]	–	–
OC1CC(c2cc(NCCOc3ccccc3)ncn2)C1 (stereo not drawn)	inconclusive: 28.2 µM [inhibitor, partial curve]	–	–
Cc1ccc(CNC(=O)N2CCCC(Cc3noc(-c4ccccc4)n3)C2)cc1 (stereo not drawn)	active: 25.1 µM	–	–
O=C(c1ccc(C(F)(F)F)cc1)N1CC(Oc2ccc(F)c(F)c2)C1	inconclusive: 50.1 µM [inhibitor, single point]	–	–
Cc1cc2cc(C(=O)N3C[C@H]4CC=CC[C@H]4C3)ccc2o1	inconclusive: 79.4 µM [inhibitor, partial curve, poor fit]	–	–
COc1ccc(Nc2ccc3c(n2)CN(Cc2ccccc2C)C(=O)CO3)cc1	active: 79.4 µM	–	–
O=C(c1ccc2cc[nH]c2c1)N1CCC(N2CC(OCC3CC3)C23CCOCC3)CC1 (stereo not drawn)	–	inactive	–
COc1ccccc1-c1cccc(CN2CCCC(C(=O)NCc3ccc(C(F)(F)F)cc3)C2)c1 (stereo not drawn)	active: 22.4 µM	–	–
O=C(NCc1cccs1)c1nc(-c2ccsc2)c2ccccn12	inconclusive: 89.1 µM [inhibitor, partial curve, poor fit]	–	–
COc1ccccc1-c1cc(C(=O)NCCCc2ccccc2)nn2cnnc12	inconclusive: 44.7 µM [inhibitor, partial curve, poor fit]	–	–
CO[C@H]1C(=O)N(C(C)C)[C@H]1C1CCN(S(=O)(=O)c2cccc3nsnc23)CC1	–	–	inactive: -27.4%
c1ccc(C2(c3nc(C4CCOC4)no3)CCCCC2)cc1 (stereo not drawn)	inconclusive: 89.1 µM [inhibitor, single point]	–	–
O=C(Nc1ccccc1F)NC1CCN(Cc2cccc(-c3cccs3)c2)CC1	active: 25.1 µM	–	–
O=C(NC1CCN(C(=O)N2CC3CC(C2)[C@H]2CCCC(=O)N2C3)CC1)c1ccc2ccccc2n1 (stereo partly drawn)	inconclusive: 56.2 µM [inhibitor, single point]	–	–
O=c1n(-c2cccc(Cl)c2)nc2n1CCN(Cc1ccccc1)C2	inconclusive: 31.6 µM [inhibitor, full curve]	–	–
O=C(NCc1ccc2c(c1)OCO2)C1CCCN(Cc2cccc(-c3cccs3)c2)C1 (stereo not drawn)	active: 31.6 µM	–	–
CC(C)n1nc(OC(C)(C)C(=O)NC2CCOCC2)c2cc(CN3CCOCC3)ccc21	inconclusive: 50.1 µM [inhibitor, partial curve, poor fit]	–	–
COc1ccc(OC)c(NC(=O)C2CCc3ncc(-c4ccsc4)n3C2)c1 (stereo not drawn)	–	–	inactive: -19.4%
Cc1ccc(Nc2ccnc(N3CCC(NC(=O)Cc4cccc(Cl)c4)CC3)n2)cc1	active: 17.8 µM	–	–
Cn1cc([C@@H](NC(=O)CCn2nnc3ccccc32)C2CC(O)C2)cn1 (stereo partly drawn)	–	–	inactive: -12.3%
CC1=NS(=O)(=O)N(Cc2ccccc2)C=C1C(=O)OCc1nc(-c2ccc(F)cc2)no1	inconclusive: 14.1 µM [inhibitor, full curve]	–	–

SMILES	Potency	outcome	activity change, negative = cytotoxicity
COc1ccc(C(=O)N2CCc3ccc(C(=O)NCc4cccc(OC)c4)cc32)cc1	inconclusive: 50.1 µM [inhibitor, partial curve, poor fit]	–	–
O=C(c1ccccc1)N1CCN(Cc2ccccc2-c2ccccc2F)CC1	inconclusive: 70.8 µM [inhibitor, single point]	–	–
CC(C)NC(=O)C1CCCN1Cc1ccc(-c2cncnc2)cc1 (stereo not drawn)	–	–	inactive: -2.77% [at 138 µM]
COc1ccc(NC(=O)Cn2nc3n(c2=O)CCCC3)c(OC)c1	–	inactive	–
COc1cccc(CN2CCCC(O)(CN3CCCCC3)C2=O)c1 (stereo not drawn)	–	–	inactive: -22.6%
Cc1ccc(-c2cccc(CN)c2)c(C)c1	active: 28.2 µM	–	–
Cc1cc(C(=O)N2CCC3(CC2)N=C(CC(C)C)NC3=O)c(C)o1	–	–	inactive: -2.07%
O=C(NCCc1ccc(Cl)cc1)C1CCCN(Cc2cccc(-c3cccs3)c2)C1 (stereo not drawn)	inconclusive: 39.8 µM [inhibitor, partial curve, poor fit]	–	–
O=c1n(CC2CC2)nc2n1CCN(Cc1ccc3cc[nH]c3c1)CC2	inconclusive: 39.8 µM [inhibitor, partial curve, poor fit]	–	–
Cc1nc(NC(=O)C2c3ccccc3C(=O)N(C3CCCC3)C23CCCC3)sc1C (stereo not drawn)	inconclusive: 70.8 µM [inhibitor, single point]	–	–
O=C(C1CCc2nnc(-c3ccc(Cl)nc3)n21)N1CCOCC1 (stereo not drawn)	–	–	inactive: -12.5%
CCCN(CCC)C(=O)c1coc(COc2ccc3sc(C)nc3c2)n1	inconclusive: 44.7 µM [inhibitor, partial curve, poor fit]	–	–
O=C1CC2(CCN([S+](=O)([O-])c3cccc(C(F)(F)F)c3)CC2)Oc2ccccc2N1c1ccccc1	inconclusive: 14.1 µM [inhibitor, full curve, poor fit]	–	–
COc1ccc(CCC(=O)N2CCC[C@H]2c2nc(-c3ccccc3)no2)cc1	inconclusive: 50.1 µM [inhibitor, partial curve, poor fit]	–	–
COc1cccc(NC(=O)N(C[C@H]2O[C@H](Cc3cc(-c4ccccc4)on3)CC[C@@H]2O)C(=O)Nc2cccc(OC)c2)c1	inconclusive: 50.1 µM [inhibitor, partial curve, poor fit]	–	–
O=C(N[C@H]1CCN2C(=O)c3cc(-c4cccc(C(F)(F)F)c4)ccc3NC(=O)[C@H]12)c1cnccn1	active: 79.4 µM	–	–
O=C1NCCOCCN(C(=O)c2ccccn2)[C@H]2CCC[C@@H]12	–	–	inactive: -0.0957%
COc1ccccc1OCc1cc(C(=O)NCc2ccc3c(c2)OCO3)n[nH]1	inconclusive: 89.1 µM [inhibitor, single point]	–	–
COc1cncc(Nc2ncc(-c3cccc(N(C)C)c3)c3c2OCC3)c1	inconclusive: 15.8 µM [inhibitor, full curve, poor fit]	–	–
Cc1cc(C)c(CNC(=O)c2cc(-c3ccccc3C)cc3ncn(C)c23)c(=O)[nH]1	inconclusive: 89.1 µM [inhibitor, partial curve, poor fit]	–	–
CC1(c2ccccc2)N(Cc2ccccc2)C(=O)OC12CCN(C(=O)Cc1cccc(F)c1)CC2 (stereo not drawn)	active: 10 µM	–	–
CNC(=O)CCn1ncc2cc(OCc3ccccc3-c3cccc(CO)c3)ccc21	inconclusive: 89.1 µM [inhibitor, partial curve]	–	–
